Assay results: PMC9918489
No constants are given. Whether binding was seen depends on the method and setting. In cells and extracts the contact can be indirect. Some binding calls cover weakened binding; strength is not graded here.

The chains behind the UniProt entries cited, without tags or fusion partners. Where a name states a change or a piece, a line headed by the entry shows the natural chain unless it says otherwise. A line that says so, or that is headed by a name, gives the form on record, which may keep a tag or linker. Residues count along the entry.
UniProt Q96LR5: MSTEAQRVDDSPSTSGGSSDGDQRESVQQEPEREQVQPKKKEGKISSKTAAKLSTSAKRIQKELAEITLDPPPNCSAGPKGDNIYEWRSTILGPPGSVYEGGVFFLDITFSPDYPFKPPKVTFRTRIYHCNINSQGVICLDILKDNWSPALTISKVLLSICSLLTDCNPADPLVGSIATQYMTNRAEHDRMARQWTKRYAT
Flag-tagged N-terminal of UBE2E2 (C-terminal-truncated mutant Δ53-201, residues 1-52): residues 1-52 of Q96LR5
UniProt O95863: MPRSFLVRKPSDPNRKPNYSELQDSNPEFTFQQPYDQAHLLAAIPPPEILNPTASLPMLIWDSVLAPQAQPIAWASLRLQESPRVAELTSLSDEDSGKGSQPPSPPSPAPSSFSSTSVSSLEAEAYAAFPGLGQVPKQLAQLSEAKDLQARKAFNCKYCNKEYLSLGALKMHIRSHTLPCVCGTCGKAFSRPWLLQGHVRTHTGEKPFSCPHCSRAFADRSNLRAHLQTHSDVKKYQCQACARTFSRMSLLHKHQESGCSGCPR

Columns and labels:
[1] = biological target: Flag-tagged UBE2E2 (wild type) (human) (UniProt Q96LR5); test: co-IP; Flag-tagged protein IP kit with magnetic beads; A2780 cells transfected with Flag-tagged UBE2E2 or Flag-tagged p62 vectors; immunoblot of the precipitate (Fig. 4E, F)
[2] = biological target: Flag-tagged UBE2E2 C139A mutant (human) (UniProt Q96LR5); test: co-IP; Flag-tagged protein IP kit with magnetic beads; SKOV3 and A2780 cells transfected with Flag-tagged WT or mutant UBE2E2; immunoblot for Nrf2 (Fig. 5H, 6E)
[3] = biological target: Flag-tagged UBE2E2 (wild type) (human) (UniProt Q96LR5); test: as above
[4] = biological target: Flag-tagged N-terminal of UBE2E2 (C-terminal-truncated mutant Δ53-201, residues 1-52) (human) (UniProt Q96LR5); test: as above

| binding [1] | binding [2] | binding [3] | binding [4] | Molecule |
| --- | --- | --- | --- | --- |
| no binding | – | – | – | Snail (zinc finger protein SNAI1) (from UniProt O95863 1-264) |
| no binding | – | – | – | p62 (sequestosome 1) (from UniProt Q13501 1-440) |
| – | binds | binds | binds | Nrf2 (nuclear factor-erythroid-2 related factor-2) (protein, UniProt Q16236 1-605) MMDLELPPPGLPSQQDMDLIDILWRQDIDLGVSREVFDFSQRRKEYELEKQKKLEKERQEQLQKEQEKAFFAQLQLDEETGEFLPIQPAQHIQSETSGSANYSQVAHIPKSDALYFDDCMQLLAQTFPFVDDNEVSSATFQSLVPDIPGHIESPVFIATNQAQSPETSVAQVAPVDLDGMQQDIEQVWEELLSIPELQCLNIENDKLVETTMVPSPEAKLTEVDNYHFYSSIPSMEKEVGNCSPHFLNAFEDSFSSILSTEDPNQLTVNSLNSDATVNTDFGDEFYSAFIAEPSISNSMPSPATLSHSLSELLNGPIDVSDLSLCKAFNQNHPESTAEFNDSDSGISLNTSPSVASPEHSVESSSYGDTLLGLSDSEVEELDSAPGSVKQNGPKTPVHSSGDMVQPLSPSQGQSTHVHDAQCENTPEKELPVSPGHRKTPFTKDKHSSRLEAHLTRDELRAKALHIPFPVEKIINLPVVDFNEMMSKEQFNEAQLALIRDIRRRGKNKVAAQNCRKRKLENIVELEQDLDHLKDEKEKLLKEKGENDKSLHLLKKQLSTLYLEVFSMLRDEDGKPYSPSEYSLQQTRDGNVFLVPKSKKPDVKKN |
